This is one part of the list.
Key:
Test in all cases: glycan array binding signal (z-score within array); higher = stronger binding
Conditions in all cases: glycan notation: IUPAC condensed, linker removed
Neu5Ac(a2-8)Neu5Ac = molecular target: Neu5Ac(a2-8)Neu5Ac
Outline: (§1)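 Negative Z-scores can be read as non-binding. The Z-score is calculated within each array and then averaged across arrays of one protein sequence at different concentrations or buffers and across linkers. Arrays, 3228 in all, were curated from the Consortium for Functional Glycomics database and kept only where the protein sequence was available.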

[1] = molecular target: Neu5Ac(a2-8)Neu5Ac(a2-3)Gal(b1-3)GalNAc(b1-4)[Neu5Ac(a2-3)]Gal(b1-4)Glc
Outline: as §1

[2] = molecular target: Neu5Ac(a2-8)Neu5Ac(a2-3)Gal(b1-3)GalNAc(b1-4)[Neu5Ac(a2-8)Neu5Ac(a2-3)]Gal(b1-4)Glc
Outline: as §1

[3] = molecular target: Neu5Ac(a2-8)Neu5Ac(a2-3)Gal(b1-4)Glc
Outline: as §1

[4] = molecular target: Neu5Ac(a2-8)Neu5Ac(a2-3)Gal(b1-4)GlcNAc
Outline: as §1

[5] = molecular target: Neu5Ac(a2-8)Neu5Ac(a2-3)[Gal(b1-3)GalNAc(b1-4)]Gal(b1-4)Glc
Outline: as §1

[6] = molecular target: Neu5Ac(a2-8)Neu5Ac(a2-3)[GalNAc(b1-4)]Gal(b1-4)Glc
Outline: as §1

[7] = molecular target: Neu5Ac(a2-8)Neu5Ac(a2-8)Neu5Ac
Outline: as §1

[8] = molecular target: Neu5Ac(a2-8)Neu5Ac(a2-8)Neu5Ac(a2-3)Gal(b1-4)Glc
Outline: as §1

[9] = molecular target: Neu5Ac(a2-8)Neu5Ac(a2-8)Neu5Ac(a2-3)[Gal(b1-3)GalNAc(b1-4)]Gal(b1-4)Glc
Outline: as §1

[10] = molecular target: Neu5Ac(a2-8)Neu5Ac(a2-8)Neu5Ac(a2-3)[GalNAc(b1-4)]Gal(b1-4)Glc
Outline: as §1

[11] = molecular target: Neu5Ac(a2-8)Neu5Ac(a2-8)Neu5Ac(a2-8)Neu5Ac(a2-3)[GalNAc(b1-4)]Gal(b1-4)Glc
Outline: as §1

[12] = molecular target: Neu5Ac(a2-8)Neu5Gc(a2-3)Gal(b1-4)GlcNAc
Outline: as §1

[13] = molecular target: Neu5Ac(b2-6)Gal(b1-4)GlcNAc
Outline: as §1

Neu5Ac(b2-6)GalNAc = molecular target: Neu5Ac(b2-6)GalNAc
Outline: as §1

[14] = molecular target: Neu5Ac9Ac(a2-3)Gal(b1-3)GlcNAc
Outline: as §1

[15] = molecular target: Neu5Ac9Ac(a2-3)Gal(b1-4)GlcNAc
Outline: as §1

[16] = molecular target: Neu5Ac9Ac(a2-6)Gal(b1-4)GlcNAc
Outline: as §1

[17] = molecular target: Neu5Gc(a2-3)Gal(b1-3)GlcNAc
Outline: as §1

[18] = molecular target: Neu5Gc(a2-3)Gal(b1-3)[Fuc(a1-4)]GlcNAc
Outline: as §1

Neu5Gc(a2-3)Gal(b1-4)Glc = molecular target: Neu5Gc(a2-3)Gal(b1-4)Glc
Outline: as §1

[19] = molecular target: Neu5Gc(a2-3)Gal(b1-4)GlcNAc
Outline: as §1

[20] = molecular target: Neu5Gc(a2-3)Gal(b1-4)GlcNAc(b1-3)Gal(b1-4)GlcNAc(b1-2)Man(a1-3)[Neu5Gc(a2-3)Gal(b1-4)GlcNAc(b1-3)Gal(b1-4)GlcNAc(b1-2)Man(a1-6)]Man(b1-4)GlcNAc(b1-4)GlcNAc
Outline: as §1

[21] = molecular target: Neu5Gc(a2-3)Gal(b1-4)[Fuc(a1-3)]GlcNAc
Outline: as §1

[22] = molecular target: Neu5Gc(a2-6)Gal(b1-4)GlcNAc
Outline: as §1

Neu5Gc(a2-6)GalNAc = molecular target: Neu5Gc(a2-6)GalNAc
Outline: as §1

[23] = molecular target: Neu5Gc(a2-8)Neu5Ac(a2-3)Gal(b1-4)GlcNAc
Outline: as §1

[24] = molecular target: Neu5Gc(a2-8)Neu5Gc(a2-3)Gal(b1-4)GlcNAc
Outline: as §1

[25] = molecular target: Neu5Gc(a2-8)Neu5Gc(a2-3)Gal(b1-4)GlcNAc(b1-3)Gal(b1-4)GlcNAc
Outline: as §1

[26] = molecular target: Neu5Gc(a2-8)Neu5Gc(a2-6)Gal(b1-4)GlcNAc
Outline: as §1

[27] = molecular target: Neu5Gc(b2-6)Gal(b1-4)GlcNAc
Outline: as §1

B1: SP8524D-bot-399-27-399 (Bacteroides ovatus) (protein)
chain: DAKYDTLDTHAYIEEALSSTSQKVTVQATGESFTTLNVHLSNLSSTDNHYKLVTDQSVLDTYNHINGTGYIMLPKDYYTLPETITVKAGQYAADALSIALKAFSQEMMKSGESYALPVKLVLQDGSISPMENTGTFVILAESIIEFSAPMFVGAPSLKANKFTESPETYSQYTIEVRFQVANTADRDRAVFKNGGDDANFILLRFEDPQSDNENYKAHSLVQIVGRNRLYLNPSNSFKPNEWQHLALVCDGSNYRLYINGVDSGVLSIPTGATTFSDVNWFCLGDDSYSRWGNCKILMSEARIWSVVRSASQIQNNMTQVSPKSVGLEAYWRFNEGQGNVFEDATGKGHTLTTSATPTWIDGILSTDKSTEWK
In the case of B1, the “glycan array binding signal (z-score)” value (Neu5Ac(a2-8)Neu5Ac) is reported as 0.166, the “glycan array binding signal (z-score)” value [1] is reported as 0.085 and the “glycan array binding signal (z-score)” value [2] is reported as 0.08. For the same binder, the “glycan array binding signal (z-score)” value [3] was -0.038, the “glycan array binding signal (z-score)” value [4] was 0.069 and the “glycan array binding signal (z-score)” value [5] was -0.188. For the same binder, the “glycan array binding signal (z-score)” value [6] was 0.232, the “glycan array binding signal (z-score)” value [7] was -0.148 and the “glycan array binding signal (z-score)” value [8] was 0.61. For the same binder, the “glycan array binding signal (z-score)” value [9] was -0.261, the “glycan array binding signal (z-score)” value [10] was -0.523 and the “glycan array binding signal (z-score)” value [11] was -0.07. For the same binder, the “glycan array binding signal (z-score)” value [12] was 0.056, the “glycan array binding signal (z-score)” value [13] was -0.048 and the “glycan array binding signal (z-score)” value (Neu5Ac(b2-6)GalNAc) was -0.019. The “glycan array binding signal (z-score)” value [14] was 0.37, the “glycan array binding signal (z-score)” value [15] was -0.24 and the “glycan array binding signal (z-score)” value [16] was -0.246. For the same binder, the “glycan array binding signal (z-score)” value [17] was 0.096, the “glycan array binding signal (z-score)” value [18] was -0.087 and the “glycan array binding signal (z-score)” value (Neu5Gc(a2-3)Gal(b1-4)Glc) was -0.032. The “glycan array binding signal (z-score)” value [19] was -0.207, the “glycan array binding signal (z-score)” value [20] was -0.124 and the “glycan array binding signal (z-score)” value [21] was -0.022. The “glycan array binding signal (z-score)” value [22] was 0.091, the “glycan array binding signal (z-score)” value (Neu5Gc(a2-6)GalNAc) was -0.234 and the “glycan array binding signal (z-score)” value [23] was 0.018. The “glycan array binding signal (z-score)” value [24] was -0.464, the “glycan array binding signal (z-score)” value [25] was 0.29 and the “glycan array binding signal (z-score)” value [26] was -0.498. The “glycan array binding signal (z-score)” value [27] was 0.555.
